Experimental data as given in PubChem BioAssay AID995 (National Center for Advancing Translational Sciences (NCATS), 2007).
Among all 72,000 compounds or so, about 710 (0.99%) were called active. This list was built around the results that the source calls inconclusive (neither active nor inactive); the mix of calls is not that of the screen. Calls come from the whole dose curve; as a rule, active = well fitted inhibition curve with a large enough effect; inconclusive = small, poorly fitted or top-dose-only effect; inactive = no such curve, though single readings can be large or run the other way. Potencies beside an inconclusive call are fits to weak or partial responses and may not hold up.

Test: qHTS Assay for Inhibitors of the ERK Signaling Pathway using a Homogeneous Screening Assay; note: nearly all actives have a fitted effect of over 55% in size
Settings: HEK293-V1b, vasopressin-stimulated pERK AlphaScreen; activity, negative = inhibition: at 57.5 µM (top of the series) unless noted
Method in brief: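 qHTS, compounds titrated on V1b-expressing HEK293 cells. Preincubation 30 min at 37C, vasopressin 25 nM for 5 min, lysis 10 min, bead incubation 5 hr at room temperature.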
% is set by controls: 0 for no effect and ±100 for the full control effect; potency is the fitted concentration of half-maximal effect; tags give direction and shape of the fitted curve.

activity, negative = inhibition, inactive:
Cc1cc(C)nc(SCNC(=O)c2ccc(F)cc2)n1 -3.41%
Cn1cnc([N+](=O)[O-])c1[Se]c1nc(N)nc2c1ncn2[C@@H]1O[C@@H](CO)[C@H](O)[C@@H]1O 2.56% [at 11.5 µM]
CCCCN(C)C(=O)CCC(=O)Nc1ccc2nc(N3CCOCC3)cc(C)c2c1 2.46%
O=C(CCc1nc(-c2cccs2)no1)Nc1cnc2ccccc2c1 27.6%
Cc1ccc(C2CC(c3ccco3)n3ncnc3N2)cc1 (stereo unspecified) -14.9%
O=C(CN1CCOc2ccccc21)NC1CCCCCCC1 -20.7%
c1ccc(CNCCN2CCNCC2)nc1 -4.95%
O=C(c1ccccc1)c1ccc(N2CCCC2)cc1 -8.8%
COc1ccc(-c2nc3cnc(N(C)C)nc3n(CCC#N)c2=O)cc1 -13.6%
CCC(C)n1cnc2c(c1=O)c1nc3ccccc3nc1n2Cc1ccccc1OC (stereo unspecified) -17.1%
Cc1nc2ccccc2c2oc(C(=O)Nc3ccc4c(c3)OCCO4)cc12 -7.91%
COc1ccc(C)cc1NC(=O)CSc1nnc(-c2cc3cccc(OC)c3o2)n1N -6.51%
CC(=O)C(Sc1nc(N2CCOCC2)nc(N2CCOCC2)n1)C(=O)Nc1ccccc1 (stereo unspecified) -20.5%
Cc1ccccc1-c1nc(Cc2ccc(Cl)cc2)no1 134%
COc1cccc(Nc2ncccc2C(=O)NCc2ccccc2)c1 -13.3%
Nn1c(COc2ccccc2)nnc1SC(F)F -9.64%
COc1ccc(NC(=O)c2oc3ccccc3c2NC(=O)c2ccco2)c(OC)c1 -6.64%
COC(=O)c1sccc1NC(=O)c1cccnc1 -20.9%
Cn1cccc1C(=O)N1CCC2(CC1)CN(C(=O)Nc1cccc(F)c1)C2 16.2%
CCc1ccccc1N1CC(C(=O)O)CC1=O (stereo unspecified) 1.09%
Cc1ccc(C)n1-c1ccc(C(=O)N2CCOCC2)cc1 -5.58%

Potency, active:
c1ccc2c(c1)oc1c(Nc3ccc(CN4CCOCC4)cc3)ncnc12 20 µM
CCc1ccc(C2CC(c3ccccc3)n3ncnc3N2)cc1 (stereo unspecified) 31.6 µM
O=C1CC(O)(C(F)(F)F)Oc2c1ccc1ccccc21 (stereo unspecified) 15.8 µM
CCOC(=O)C1CCCN(C(=O)c2cc3nc(-c4cccc(OC)c4)cc(C(F)(F)F)n3n2)C1 (stereo unspecified) 15.8 µM

Potency, inconclusive:
COc1ccc(-c2nnc(SCC(=O)c3[nH]c(C)c(C(C)=O)c3C)o2)cc1 12.6 µM [inhibitor, partial curve]
Cc1[nH]nc2c1C(c1ccc(OC(=O)c3ccco3)cc1)C(C#N)=C(N)O2 (stereo unspecified) 39.8 µM [inhibitor, single point]
COc1ccc2c(c1)[C@]1(C)CCC(=O)C[C@H]1CC2 5.01 µM [inhibitor, single point]
CCSc1nnc2c(n1)[nH]c1c(C)cccc12 39.8 µM [inhibitor, single point]
COc1ccc(CCNc2oc(Cc3ccccc3)nc2C#N)cc1OC 15.8 µM [inhibitor, partial curve]
Cc1oc(-c2ccccc2)nc1C(=O)Nc1nccs1 15.8 µM [inhibitor, partial curve]
CCC(=O)N1CCCc2cc(S(=O)(=O)N3CCN(c4ncccn4)CC3)ccc21 3.16 µM [inhibitor, partial curve, poor fit]
Cc1cnc(CNc2ncncc2-c2ccc3c(c2)OCO3)cn1 31.6 µM [inhibitor, single point]
Clc1ccccc1C1=Nn2c(nnc2-c2ccncc2)SC1 25.1 µM [inhibitor, partial curve]
COc1cccc(C(=O)Cn2c(Br)nc3c2c(=O)n(C)c(=O)n3C)c1 15.8 µM [inhibitor, partial curve]
CCOC(=O)c1cccc(NC(=O)Cn2cc3c(n2)CCC(C)C3)c1 (stereo unspecified) 15.8 µM [inhibitor, single point]
COc1ccccc1NC(=O)CN1CCN(CC(=O)Nc2ccc(Cl)c(C(F)(F)F)c2)CC1 31.6 µM [inhibitor, single point]
COc1cccc(CNn2c(-c3cccc(C)c3)nc3ccccc3c2=O)c1O 15.8 µM [inhibitor, partial curve]
CCn1c(=O)c2c(n3cnnc13)-c1ccccc1CC21CCCCC1 0.1 µM [inhibitor, full curve, poor fit]
O=c1cc(-c2ccc(O)cc2)oc2cc(O)cc(O)c12 20 µM [inhibitor, partial curve]
CCOC(=O)CSc1nnc(Cc2cc(=O)[nH]c(=O)[nH]2)n1-c1ccc(Cl)cc1 31.6 µM [inhibitor, single point]
Cn1c(=O)c2[nH]cnc2n(-c2ccccc2)c1=O 1 µM [inhibitor, full curve, poor fit]
COc1ccc(-c2noc(CN(C(=O)c3ccc(OC(C)=O)cc3)C(C)C)n2)cc1OC 31.6 µM [inhibitor, single point]
O=S(=O)(/N=C(/Nc1cc(N2CCOCC2)ncn1)c1ccc(F)cc1)c1ccccc1 1 µM [inhibitor, full curve, poor fit]
CCN1CCc2c(sc(N)c2C#N)C1 31.6 µM [inhibitor, partial curve, poor fit]
COc1cc(OC)cc(-c2nc3nc(C)c(CCC(=O)NCc4ccco4)c(C)n3n2)c1 10 µM [inhibitor, partial curve]
O=C1CC(c2ccco2)Cc2nc(Nc3nc(-c4ccccc4)c4ccccc4n3)ncc21 (stereo unspecified) 15.8 µM [inhibitor, partial curve]
Nc1nc2c(s1)C(=O)CCC2 10 µM [inhibitor, partial curve]
CCOC(=O)C1=C(N)Oc2cc(C)n(CCc3ccc(OC)c(OC)c3)c(=O)c2C1c1cccnc1 (stereo unspecified) 15.8 µM [inhibitor, partial curve]
Cc1nn2c3cc(N4CCOCC4)ccc3nc2c2ccccc12 10 µM [inhibitor, partial curve, poor fit]
CC(=O)Oc1ccc(N2C(=O)C3C(C2=O)C2(C)C=CC3(C)O2)cc1 (stereo unspecified) 39.8 µM [inhibitor, single point]
O=C(Cn1cnc2c(oc3ccccc32)c1=O)NCC1CCCO1 (stereo unspecified) 39.8 µM [inhibitor, single point]
CCc1cccc(NC(=O)Cn2cccc2)c1 12.6 µM [inhibitor, partial curve]
COC(=O)c1ccc(NC(=O)c2cccc(OC)c2)cc1 39.8 µM [inhibitor, single point]
COc1ccc(C)cc1S(=O)(=O)N1CCC(C)CC1 3.98 µM [inhibitor, full curve, poor fit]
O=C1c2ccccc2C(Nc2ccc3nc(-c4cccnc4)[nH]c3c2)N1Cc1ccco1 (stereo unspecified) 15.8 µM [inhibitor, partial curve]
c1ccc(-c2noc(-c3cccc4ccccc34)n2)nc1 12.6 µM [inhibitor, partial curve]
COCCC(=O)N(Cc1ccc2c(c1)OCO2)C(C(=O)NC1CCCCC1)c1ccncc1 (stereo unspecified) 0.0126 µM [inhibitor, full curve, poor fit]
Cc1cc(C)c2c3c(sc2n1)C1(CCSCC1)C(C#N)=C(N)O3 12.6 µM [inhibitor, partial curve]
Oc1ccc(N2CCN(c3ncnc4sc5c(c34)CCC5)CC2)cc1 39.8 µM [inhibitor, single point]
CCN(CC)S(=O)(=O)c1cc(C(=O)Nc2ccc(Cl)cn2)ccc1C 15.8 µM [inhibitor, partial curve]
CCOC(=O)c1cnc2c(C(F)(F)F)cccc2c1N1CCOCC1 31.6 µM [inhibitor, single point]
COc1ccc(-c2nnc3sc(-c4cccs4)nn23)cc1OC 10 µM [inhibitor, partial curve]
O=C(Nc1ccccc1NC(=O)c1c(F)c(F)c(F)c(F)c1F)c1c(F)c(F)c(F)c(F)c1F 1.26 µM [inhibitor, full curve, poor fit]
COc1cc(S(=O)(=O)N(Cc2ccco2)C2CCCC2)ccc1-n1cnnn1 3.98 µM [inhibitor, full curve, poor fit]
Cc1nc2cnc(N(C)C)nc2n(C2CC2)c1=O 7.94 µM [inhibitor, partial curve]
O=C1c2ccccc2C(=O)C1(O)O 39.8 µM [inhibitor, single point]
O=c1cc(CSc2nnnn2-c2ccccc2)[nH]c2[nH]n(-c3ccccc3)c(=O)c12 0.1 µM [inhibitor, full curve, poor fit]
COc1ccc(-c2ccc(SCC(=O)N3CCOCC3)nn2)cc1OC 5.01 µM [inhibitor, partial curve]
COc1ccc(-c2noc(-c3ccco3)n2)cc1OC 15.8 µM [inhibitor, partial curve]
CCOC(=O)C1CCN(C(=O)c2cn(C)c(=O)c3cc(OC)c(OC)cc23)CC1 25.1 µM [inhibitor, single point]
